Some of the results follow.
Each molecule was assayed on S. aureus RN4220 (assay: growth inhibition call (relative growth <= 0.2)). Conditions: 50 µM.

Compound	growth inhibition call
CS(=O)(=O)NCc1cnc2n1CCN(C(=O)[C@H]1CCOC1)CC2	inactive
COc1ccccc1C#Cc1ccc2c(c1)O[C@H](CN(C)Cc1cncnc1)[C@@H](C)CN([C@@H](C)CO)S2(=O)=O	inactive
N=C(N)c1ccc(OCCCCCOc2ccc(C(=N)N)cc2)cc1.O=S(=O)(O)CCO.O=S(=O)(O)CCO	active
C[C@H]1CN([C@@H](C)CO)C(=O)c2cccc(NC(=O)Nc3ccc(C(F)(F)F)cc3)c2O[C@@H]1CN(C)Cc1ccncc1	inactive
COc1ccc(S(=O)(=O)Nc2ccc3c(c2)C(=O)N([C@H](C)CO)C[C@H](C)[C@H](CN(C)S(=O)(=O)c2cn(C)cn2)OCCCC[C@H](C)O3)cc1	inactive
C[C@H](CO)N1C[C@H](C)[C@@H](CN(C)C(=O)Nc2cccc3ccccc23)Oc2ccc(NS(=O)(=O)c3cccs3)cc2C1=O	inactive
Cc1noc(C)c1S(=O)(=O)N(C)C[C@@H]1Oc2ccc(NC(=O)C3CC3)cc2CC(=O)N([C@@H](C)CO)C[C@@H]1C	inactive
C[C@@H]1CN([C@H](C)CO)C(=O)Cc2cc(NC(=O)Nc3ccc4c(c3)OCO4)ccc2O[C@H]1CN(C)Cc1ccc(C(=O)Nc2ccccc2N)cc1	inactive
COCCOC(=O)N1C(=O)[C@@]2(c3cc(C#CC4(O)CCCCCC4)ccc31)[C@H](c1ccc(O)cc1)N1[C@H](c3ccccc3)[C@H](c3ccccc3)OC(=O)[C@H]1[C@@H]2C(N)=O	inactive
Cc1noc(C)c1NC(=O)Nc1cccc2c1O[C@@H](CN(C)Cc1ccc(Oc3ccccc3)cc1)[C@H](C)CN([C@H](C)CO)C2=O	inactive
Cc1cc(C)c(S(=O)(=O)N2CCO[C@@H]2CNC(=O)C(=O)NCCCN2CCCC2=O)c(C)c1	inactive
C[C@@H]1CN([C@@H](C)CO)C(=O)c2cc(C#CC3CCCCC3)cnc2O[C@@H]1CN(C)C(=O)Cc1ccccn1	inactive

From the antibiotic and cytotoxicity screens of Wong et al. (2023)
